Values marked as one replicate rest on one cluster of the flow cell; about a third of the high ones do not repeat.
Tested on: ATP
Experiment: switch fluorescence ratio, 500 uM ATP over buffer (Cy3 cluster intensity, sum of 5 cycles each) (fold (ratio)); higher = stronger signal-on switching upon ATP binding; sequences stand for … in TCGTCGGCAGCGTCAGATGTGTATAAGAGACAGTTTTTTTTTTTTTTTTTTTTTTTTT…TC
Conditions: aptamer strand: ATP DNA aptamer (quencher-CACCTGGGGGAGTATTGCGGAGGAAGG + anchor), 100 nM annealed; ATP concentration: 500 uM; one replicate
Outline: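 Per cluster, summed Cy3 intensity from the target cycles was divided by that from the buffer cycles to give the fluorescence ratio, then averaged per switch-domain sequence. Clusters outside 100-1000 RFU were excluded. The Cy3-labelled switching-strand clusters, on a modified Illumina MiSeq flow-cell, were annealed to 100 nM quencher-labelled ATP aptamer and imaged in selection buffer, then after 15 min with 500 uM ATP at 22 °C, for five cycles with NaOH stripping and re-annealing between them.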
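Further: ATP exposure 15 min at 22 °C before imaging.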

| Sequence | switch fluorescence ratio |
| --- | --- |
| TCGTAGTGTA | 1 |
| CAGCGGTAGA | 1.02 |
| TACTCAGTAG | 1.01 |
| CTAACTTATC | 1 |
| GCTCCAAAGA | 1.25 |
| AAGACCTGTG | 0.969 |
| CGGTCATGAG | 1.02 |
| GCTAAAACTT | 0.981 |
| CATTACCTGA | 1.03 |
| CATGGCAGAT | 0.972 |
| TGCTTTCAGG | 0.978 |
| AAGGCGCTCG | 1.02 |
| AGGTTCGAAT | 1.04 |
| AGGGGTCGAT | 1.01 |
| GTTGCGAGAC | 1.42 |
| TAGCGGCACG | 0.967 |
| AAGCACTGAC | 1.53 |
| TTTGATCGAA | 1.01 |
| ATTACATGGT | 0.996 |
| CACACATCGG | 1.07 |
| TTTTGTATGC | 0.984 |
| TCAGATGATT | 1.03 |

| Sequence | switch fluorescence ratio |
| --- | --- |
| CGTGAAATTA | 1 |
| ATTTGCGTCC | 0.998 |
| CATATTATCG | 1.03 |
| TCATGAAAGT | 0.97 |
| AATTGTTCGA | 0.997 |
| ATGCTTGGCG | 1.01 |
| AGTGGAAGTA | 0.995 |
| GCGCCAGG | 1.3 |
| GAATGAGCGA | 1.02 |
| ATTGGCCGCA | 1.13 |
| TTTCAACACT | 1.07 |
| TGGGATTGAG | 1 |
| CTACTCTTTG | 1.03 |
| TTGCTACATG | 0.968 |
| TAAGATAGCG | 1.01 |
| TTATATGCGT | 1.03 |
| CGCGCATAGG | 1.12 |
| TTAGTCAGGT | 1 |
| AATAATGCCT | 1.09 |
| ACGACAGTGT | 1.02 |
| CAGCACAAT | 1.11 |
| CAGGGCATTC | 1.16 |

| Sequence | switch fluorescence ratio |
| --- | --- |
| ATGTCTGATC | 1.01 |
| ATCCTTAACG | 1.01 |
| GATTTAGTG | 1.02 |
| TGTAGTCGCA | 1 |
| GGTATTTGTC | 1.01 |
| GAGGACACGG | 0.994 |
| TACAATCGC | 1.02 |
| AAAGTTGAGC | 1.03 |
| GTGTAGGATC | 1.01 |
| ATCCTTACGG | 1.09 |
| TCAATGGGTG | 1.01 |
| ACGGCCTTCG | 1.13 |
| ATCTATTCGC | 1.01 |
| TGATAAGACC | 0.96 |
| GAGCGGGTGT | 1.03 |
| TAAAAACGCT | 1.01 |
| GAAGAAGATA | 0.953 |
| TCAGGTATGA | 0.974 |
| ATTGTTTACG | 0.987 |
| TAGCACGTAC | 1.98 |
| CCGAAGGCTG | 1.19 |
| GGGGATCAAC | 0.967 |

| Sequence | switch fluorescence ratio |
| --- | --- |
| AGGGACTAAC | 1.06 |
| GATATCATAG | 0.993 |
| TTAGGTGGA | 1.05 |
| GGGCCCAGGC | 1.07 |
| TTTACATCTG | 1.09 |
| CGGGAATAAG | 0.993 |
| CCACGCTGGG | 1.17 |
| TAGGGCTAAC | 1.05 |
| GGAACTCTAT | 0.998 |
| AAAGATATG | 0.978 |
| CATAGTCATG | 0.935 |
| TGGGGAGAAT | 1.03 |
| ACTGTGCCAT | 1.03 |
| CCTCACTTAT | 1.34 |
| TCTTCAGGCC | 0.976 |
| AGTACTGGT | 1.02 |
| GTGTACCGAT | 0.974 |
| AGATACAACG | 1.07 |
| GGTTATGGTC | 0.957 |
